Variants at the background level are over-represented here.
B1: TPR 5TU (parent)
chain: GGAUCUUCUCGAUCUAACAAAAAAGACAAAUCUGCCACAAAGCUUGAGAGCAUCUUCGGAUGCAGAGGCGGCAGCCUUCGGUGGCGCGAUAGCGCCAACGUUCUCAACUAUGACACGCAAAACGCGUGCUCCGUUGAAUGGAGUUUAUCAUG

Variants of: B1
Test: polymerase ribozyme fitness, log enrichment relative to wild type (log ratio); higher = more active; in vitro selection for triplet polymerase activity
How it was run: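 PCR was used to build mutant libraries for each subunit of a heterodimeric triplet polymerase ribozyme, which were then transcribed. A single in vitro selection round, in triplicate, used a frozen incubation at −7 °C and recovered extended constructs by gel excision, streptavidin beads and RT-PCR. Fitness is the logarithm of genotype enrichment relative to wild-type enrichment, averaged over replicates with inverse-variance weights. The logarithm is base 2, and after Illumina sequencing only genotypes with ≥10 input reads and ≥1 read per output were kept.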

Variant	polymerase ribozyme fitness (log ratio)
A23C C79A C103U A138G G143C	≤ -4.2
A23C C85G C95U	≤ -4.2
A23C C87U G112U	-3.99
A23C C93G	≤ -4.2
A23C C95U A98U G128A	≤ -4.2
A23C G25C	≤ -4.2
A23C G25C C27G U53A C54G A66G G80A A91G G92A C99U	≤ -4.2
A23C G25U C32A G50U C85G A113G U130A	≤ -4.2
A23C G34U C43U A60G C132U	-4.02
A23C G42A C96G U127A	≤ -4.2
A23C G42C U44A A52C C96U C132U U145G	≤ -4.2
A23C G42U A91G A97U A115U C116A	≤ -4.2
A23C G42U A137U	≤ -4.2
A23C G46A G70A C87A C103U A138G	≤ -4.2
A23C G46C C54G G86A G100C A142C	≤ -4.2
A23C G46U A52C A64C G80C C114U	≤ -4.2
A23C G48C C85A U135C A150G	≤ -4.2
A23C G48C G68C C99U U101C A122U U144G	≤ -4.2
A23C G58A A97U A119C U145A U146A	≤ -4.2
A23C G58U A60G C69A C103U	≤ -4.2
A23C G58U C87G C108A U135C	≤ -4.2
A23C G58U G67U G80U	≤ -4.2
A23C G59C C79G C96G C132G U139G	≤ -4.2
A23C G59U U144A U146G	≤ -4.2

Variant	polymerase ribozyme fitness (log ratio)
A23C G74C U77A G92U C131G	≤ -4.2
A23C G81U C96U	≤ -4.2
A23C G84A	≤ -4.2
A23C G92U A122U	≤ -4.2
A23C G94U C96A A98U G141A U146G G152A	≤ -4.2
A23C U33A A41G A60U G94C	≤ -4.2
A23C U33C C105G U144C	≤ -4.2
A23C U33G A47C C87G	≤ -4.2
A23C U33G U78A G86A G133A	≤ -4.2
A23C U44C A64C G92C A97U	≤ -4.2
A23C U44C U55G C57A C93U U145A	≤ -4.2
A23C U45A G50C A91U A113C A121U G140C	≤ -4.2
A23C U45C U61G A89G C99A C149G	≤ -4.2
A23C U53A C93U U134G	≤ -4.2
A23C U53A G80C	≤ -4.2
A23C U55A G88A C95U A121G U134A	≤ -4.2
A23C U55C G71A C87G G94A C96A U111G	≤ -4.2
A23C U56A G86U A115G	≤ -4.2
A23C U56A G88U C103A A106G A120U	≤ -4.2
A23C U56G G83U G126A	≤ -4.2
A23G A24U C27G U55A G92U	-3.98
A23G A26G A60C A91U C96U U139C U146C U148C	≤ -4.2
A23G A28C A47C G141C	≤ -4.2
A23G A28U U56A C114A A122U	≤ -4.2

Variant	polymerase ribozyme fitness (log ratio)
A23G A29G C95G G152U	-3.84
A23G A30C C87G A89C C103G C108A	≤ -4.2
A23G A37G U55A G68C G70U G83C C85A U144C U146C	≤ -4.2
A23G A39G G84A U145C	≤ -4.2
A23G A39U C93U	≤ -4.2
A23G A41C U90G A110G	≤ -4.2
A23G A41C U90G U145G	≤ -4.2
A23G A47C A49C A52G A64C G92C	≤ -4.2
A23G A47U G70A C87G U139C U146C U148G	≤ -4.2
A23G A47U G88U A107G	≤ -4.2
A23G A49G G62C C99U C116U C125G	≤ -4.2
A23G A49G G81U G88U U104C C116U	≤ -4.2
A23G A49U A60G A119U A120U A122C	-3.98
A23G A52G C57U C95A C96G U102G A107G G141A	≤ -4.2
A23G A52U	-3.51
A23G A52U C57U G71U C79U C96A	≤ -4.2
A23G A73G C95U G140A A142C	≤ -4.2
A23G A73U G81C	-4.17
A23G A89G A91G C95U U148G	≤ -4.2
A23G A107C	≤ -4.2
A23G C27G A106C G126C	≤ -4.2
A23G C27U A29C C32A C36G C85U C95A U127G	-4.14
A23G C27U U56A G62C C95A C149A	≤ -4.2
A23G C32G G70A C85G	≤ -4.2

Variant	polymerase ribozyme fitness (log ratio)
A23G C32U G59C U109A C116A G124U	≤ -4.2
A23G C35G	≤ -4.2
A23G C35U C51U C93G A121G A122U	≤ -4.2
A23G C35U C72U A91G C103G A113G C114G	≤ -4.2
A23G C38U G59U G112C	≤ -4.2
A23G C38U U56A G58U C87G C118A	≤ -4.2
A23G C38U U61A	≤ -4.2
A23G C38U U61A C69A C76U C96G C116U G117U	≤ -4.2
A23G C51A C93G C132U	≤ -4.2
A23G C51A U55G C85G A91C C93G U127A G143A	≤ -4.2
A23G C54A A91C C108U C116A	≤ -4.2
A23G C54A U56A C72U A73G	≤ -4.2
A23G C54G U77A C99G U109C C125A A138G	≤ -4.2
A23G C57A C72A C96A G140U	≤ -4.2
A23G C57U	-2.27
A23G C63U G86A U102G C103G U139C U145A U148A	≤ -4.2
A23G C79G	≤ -4.2
A23G C79G U148C U151C	≤ -4.2
A23G C85G C96G	≤ -4.2
A23G C85G C125G A142C	≤ -4.2
A23G C87A	≤ -4.2
A23G C87U U127C	-3.81
A23G G25A C85G U104C C132A U134A	≤ -4.2
A23G G25C A40C G58A U61A G80C G88C	≤ -4.2

Variant	polymerase ribozyme fitness (log ratio)
A23G G25C C75G A147G G152U	≤ -4.2
A23G G25C G48A A91U	≤ -4.2
A23G G25U G46C U53A C75A G84C C96A G141A U144G	≤ -4.2
A23G G42C G46A U61A G67C C85U A98U U148A	≤ -4.2
A23G G48A U101A	≤ -4.2
A23G G50C	-4
A23G G50C G86C A89G G92U A97U G141C	≤ -4.2
A23G G50C G92A A98G	≤ -4.2
A23G G58C U104G U139G G141C U151G	≤ -4.2
A23G G59A G62C A91C C95A	≤ -4.2
A23G G59A G68U A142U	≤ -4.2
A23G G65U A89U G92U C96U	≤ -4.2
A23G G68A C85A G143U	≤ -4.2
A23G G80C G81A	≤ -4.2
A23G G81A A121U G141U	-2.76
A23G G84A C129G C149G	≤ -4.2
A23G G84U	-3.88
A23G G86A G100A	≤ -4.2
A23G G86U C93U A150U	-3.88
A23G G88C	≤ -4.2
A23G G124C A147G A150G	≤ -4.2
A23G U31A U44A G58C C96U	≤ -4.2
A23G U31C C103A U144C	≤ -4.2
A23G U33G A37U G58U C69U A110U	≤ -4.2

Variant	polymerase ribozyme fitness (log ratio)
A23G U44A U61A G70U C76G C93G G143C	≤ -4.2
A23G U53C G74C	≤ -4.2
A23G U55A G74A A110U A138C	≤ -4.2
A23G U90A C93U C105U C125U	≤ -4.2
A23G U90G G92A U127C G140U	≤ -4.2
A23G U101A	-3.18
A23G U130C A138U	-4.2
A23U A24C C51U U53A A98U	≤ -4.2
A23U A24C G25U G94C A119C C123A G141C	≤ -4.2
A23U A24U C54A U56A C85U U104C G126A U130C	≤ -4.2
A23U A24U U55A G58A A89U A91G A110G C131U	≤ -4.2
A23U A26C G88U	≤ -4.2
A23U A26G A91C	≤ -4.2
A23U A26U C51A A66U C85U U148C	≤ -4.2
A23U A28C G42C U44A A47G C79A G92A A142G	≤ -4.2
A23U A28G G46U G48A C57G G81C C95G	≤ -4.2
A23U A28G U55A G59A U78G G128A	-3.79
A23U A28U A41U A64G C75U A120U G140A	≤ -4.2
A23U A28U C54U C76G C85A C105G	≤ -4.2
A23U A28U G65A G80U C99U C132A	≤ -4.2
A23U A28U U44A A47C G50A C93A A98G A115U A138C G140C C149A	≤ -4.2
A23U A29C G62C G68U C95U C99A A122C A142U	≤ -4.2
A23U A29G U101C	≤ -4.2
A23U A29U C79G G81U C93G C149U	≤ -4.2

Variant	polymerase ribozyme fitness (log ratio)
A23U A30G A41C A47G U53G U56A C75A C93U C108G G133C G136A	≤ -4.2
A23U A30G G48C A73G C96U G133A U145A A150C	≤ -4.2
A23U A30U A41C C57U C79G C85G A121C A142C U145A	≤ -4.2
A23U A30U C32U G84A A98G	≤ -4.2
A23U A37C G67U C108U U135C G141U	≤ -4.2
A23U A39G A64C C87U C105G U134A	≤ -4.2
A23U A40C C54A A122C U135A A137C U146G	≤ -4.2
A23U A40C C57A G71A	≤ -4.2
A23U A40G U44A G50U	≤ -4.2
A23U A40U A73G	≤ -4.2
A23U A41C A47U U55A A64G G88A G124U	≤ -4.2
A23U A41G	-3.88
A23U A41G C43U G71U C96A C118A U135A	≤ -4.2
A23U A41G U53A A150C	≤ -4.2
A23U A47G C93U U127C C131G	≤ -4.2
A23U A47G G50A A73U C87A A147U	≤ -4.2
A23U A47U U61A G81U G126U	≤ -4.2
A23U A49G U56A A113U G140U	≤ -4.2
A23U A52C A60U C79A U102C A138G	≤ -4.2
A23U A52C C87A C96U	≤ -4.2
A23U A52C U55A G81U G84A C99A	≤ -4.2
A23U A52G A73U	≤ -4.2
A23U A52G C87A U111G C114A	≤ -4.2

— the RNAGym collection of RNA variant scans (doi:10.1073/pnas.2313332121)
